This note sets out measurements from publication PMC6204899.

Where a chain is given by its changes, count along the chain named. Names may count otherwise. No constants are given. Whether binding was seen depends on the method and setting. In cells and extracts the contact can be indirect. Some entries that bind do so weakly or less than the wild type. For part of these data: Where a sequence is shown, tags or fusion partners need not be part of it.

In assay [1] the target is T1, ARGONAUTE1 (Arabidopsis thaliana (endogenous in seedlings)) (UniProt O04379).
T1 sequence: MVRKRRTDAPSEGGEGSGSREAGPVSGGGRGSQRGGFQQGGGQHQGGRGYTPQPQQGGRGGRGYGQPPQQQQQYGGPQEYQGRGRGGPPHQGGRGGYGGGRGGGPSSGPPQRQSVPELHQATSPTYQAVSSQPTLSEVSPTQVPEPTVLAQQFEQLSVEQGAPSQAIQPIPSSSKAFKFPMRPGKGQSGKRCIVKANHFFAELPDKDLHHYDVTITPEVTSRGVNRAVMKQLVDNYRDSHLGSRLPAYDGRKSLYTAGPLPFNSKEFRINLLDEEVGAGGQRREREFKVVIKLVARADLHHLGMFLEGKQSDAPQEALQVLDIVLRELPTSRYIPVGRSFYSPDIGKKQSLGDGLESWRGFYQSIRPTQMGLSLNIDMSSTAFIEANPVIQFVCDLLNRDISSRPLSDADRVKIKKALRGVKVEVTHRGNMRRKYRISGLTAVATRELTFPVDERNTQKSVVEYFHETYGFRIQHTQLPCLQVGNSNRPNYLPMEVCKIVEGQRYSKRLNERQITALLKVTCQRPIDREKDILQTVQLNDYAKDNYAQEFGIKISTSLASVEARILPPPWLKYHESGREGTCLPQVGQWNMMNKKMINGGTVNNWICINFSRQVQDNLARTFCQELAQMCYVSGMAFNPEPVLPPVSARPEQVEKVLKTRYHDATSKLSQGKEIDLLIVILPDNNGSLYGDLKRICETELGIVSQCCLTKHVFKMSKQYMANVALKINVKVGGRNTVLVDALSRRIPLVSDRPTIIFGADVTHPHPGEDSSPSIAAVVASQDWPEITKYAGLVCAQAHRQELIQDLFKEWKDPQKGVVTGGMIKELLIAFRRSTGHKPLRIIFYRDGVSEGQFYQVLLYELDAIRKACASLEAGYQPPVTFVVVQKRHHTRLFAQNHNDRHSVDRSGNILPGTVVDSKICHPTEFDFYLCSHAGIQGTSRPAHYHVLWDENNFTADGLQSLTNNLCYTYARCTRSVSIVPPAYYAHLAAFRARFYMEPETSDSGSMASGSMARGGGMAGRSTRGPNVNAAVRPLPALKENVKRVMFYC
Briefly: co-IP; AGO1 antibody IP from deoxycholate-solubilized microsome (membrane) fractions of seedlings, formaldehyde cross-linked or untreated; IP buffer 50 mM Tris/HCl pH 7.5, 150 mM NaCl, 10% glycerol, 5 mM MgCl2, 0.1% Nonidet P-40; 4 °C; blots with J2/J3, AGO1 and HSP90 antibodies; for comparison of genotypes inputs adjusted to equal recovery of AGO1.

In assay [2] the target is T1, ARGONAUTE1 (Arabidopsis thaliana (endogenous in seedlings)). The experiment in a line: co-IP; AGO1 antibody IP from soluble fractions (100,000 x g supernatant, NaCl added to 150 mM and Nonidet P-40 to 0.5%), noncross-linked 16-day-old seedlings; same amount of AGO1 precipitated as from microsomal fractions.
Substrate in assay [3]: T2, N terminally 2×FLAG-2×haemagglutinin (FHA)-tagged J3 (Arabidopsis) (UniProt Q94AW8)
T2 sequence: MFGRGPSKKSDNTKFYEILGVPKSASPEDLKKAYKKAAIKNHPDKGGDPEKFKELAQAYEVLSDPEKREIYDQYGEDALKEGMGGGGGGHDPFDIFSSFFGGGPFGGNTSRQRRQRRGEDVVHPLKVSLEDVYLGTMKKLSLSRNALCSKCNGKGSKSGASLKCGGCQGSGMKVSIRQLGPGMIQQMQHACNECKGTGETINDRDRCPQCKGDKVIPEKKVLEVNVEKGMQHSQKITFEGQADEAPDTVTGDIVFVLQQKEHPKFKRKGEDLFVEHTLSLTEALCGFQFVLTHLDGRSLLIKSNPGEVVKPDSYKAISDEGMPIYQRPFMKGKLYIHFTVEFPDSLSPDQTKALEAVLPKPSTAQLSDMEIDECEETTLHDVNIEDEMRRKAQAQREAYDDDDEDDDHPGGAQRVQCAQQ
Briefly: co-IP; anti-FLAG M2 affinity gel IP from deoxycholate-solubilized membrane fractions of the FHA-J3 transgenic line, noncross-linked 16-day-old seedlings; FLAG peptide elution; mock: Col-0.

B1: J3 (farnesylated heat shock protein 40 homolog) (protein, UniProt Q94AW8 1-420)
chain: T2 sequence
modifications: farnesylated in planta (C-terminal CAAX motif; J3 farnesylation site C417)
On to B1, for which the figures for the binding entry in assay [1] and in assay [2] were “binds” and “no binding (condition: in soluble fractions)”, respectively.

B2: J3^WT expressed in j2/j3 double knockout background (protein, UniProt Q94AW8 1-420)
chain: T2 sequence
B2: the binding result in assay [1] is “binds”.

B3: J3^C417S, farnesylation-deficient point mutant, expressed in j2/j3 double knockout background (protein, UniProt Q94AW8 1-420)
chain: T2 sequence with C417S
On to B3, for which the binding entry in assay [1] was “binds”.

B4: J3 in era1 farnesyl transferase mutants (not farnesylated) (protein, UniProt Q94AW8 1-420)
chain: T2 sequence
Regarding B4, the binding entry in assay [1] is given as “binds”.

B5: ARGONAUTE1 (protein, UniProt O04379 1-1048)
chain: T1 sequence
Regarding B5, in assay [3], the binding result was “binds”.
